Results as given in PubChem BioAssay AID2546 (National Center for Advancing Translational Sciences (NCATS), 2010).
Out of some 310,000 compounds screened, about 11,000 (3.5%) were called active. Inconclusive results, whose numbers are uncertain, are shown with a selection of clear calls. Calls come from the whole dose curve; as a rule, active = well fitted inhibition curve with a large enough effect; inconclusive = small, poorly fitted or top-dose-only effect, or effect the other way; inactive = flat fitted curve, though single readings scatter. No potency is given beside an inconclusive call; the fits are too rough.

Assay: VP16 counterscreen qHTS for inhibitors of ROR gamma transcriptional activity;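 note: Gal4-VP16 expression switched on by copper sulfate through the metallothionein promoter; nearly all actives have a fitted effect of over 50% in size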
Conditions: Drosophila S2 Gal4-VP16 UAS-luciferase, luminescence, 20 h; activity, negative = inhibition: at 53.6 µM (top of the series)
% is set by controls: 0 for no effect and ±100 for the full control effect; potency is the fitted concentration of half-maximal effect; tags give direction and shape of the fitted curve.

Row | Compound | activity, negative = inhibition | Potency
1 | C[C@H]1CN=C(Nc2ccccc2)N1CC1CCCCCC1 | inactive: -4.54% | 
2 | CN1c2ccc(C=O)c3c(C=O)ccc(c23)N(C)C1(C)C |  | inconclusive [inhibitor, partial curve]
3 | Cc1ccc(-c2cc(C(=O)Nc3ccc(S(=O)(=O)N4CC(C)OC(C)C4)cc3)[nH]n2)c(O)c1 (stereo unspecified) |  | inconclusive [inhibitor, single point]
4 | CCCCn1c(-c2sccc2C)n[nH]c1=S |  | active: 11.2 µM
5 | CCOc1ccc(NC(=O)[C@H](C)NC(=O)C2CC(=O)N(c3ccc(OC)cc3)C2)cc1 (stereo partly specified) | inactive: -0.627% | 
6 | COc1cccc(/C=N/c2nc3ccccc3n2C)c1O |  | inconclusive [inhibitor, single point]
7 | S=C(NC1CCCCC1)NC1CC2C=CC1C2 (stereo unspecified) |  | inconclusive [inhibitor, single point]
8 | Cc1cc(NS(=O)(=O)c2ccc(Nc3nc(-c4sc(N)nc4C)cs3)cc2)no1 | inactive: -9.77% | 
9 | COc1ccccc1/C=N/NC(=O)c1ccc(-c2ccccc2)cc1 |  | inconclusive [inhibitor, single point]
10 | c1ccc2c(CCNc3ncnc4nc[nH]c34)c[nH]c2c1 |  | inconclusive [inhibitor, single point]
11 | Cc1ccc2sc(NNC(=O)c3cc(=O)c4ccccc4o3)nc2c1C | inactive: -11.9% | 
12 | COC(=O)c1sc(-c2ccc(Cl)cc2)cc1N |  | inconclusive [activator, full curve, poor fit]
13 | N#C/C(=C(/O)COC(=O)Cc1c[nH]c2ccccc12)c1nc2ccccc2[nH]1 |  | inconclusive [inhibitor, single point]
14 | CN1CCN(c2nc(-c3ccccc3)ncc2S(=O)(=O)c2ccccc2)CC1 | inactive: 13.8% [at 10 µM] | 
15 | Cc1ccc(C(C)C)c(OCc2nn(CC(=O)c3ccc(OC(F)F)cc3)c3[n+]2CCCCC3)c1 | inactive: 1.68% | 
16 | O=[N+]([O-])c1ccc(/C=N/n2c(-c3ccccc3)n[nH]c2=S)cc1 |  | active: 10 µM
17 | CCOC(=O)N/N=C\c1sccc1C |  | inconclusive [activator, full curve, poor fit]
18 | CC(C)(C)c1ccc(C(=O)NCCOc2ccccc2F)cc1 |  | active: 6.31 µM
19 | COc1cc(/C=N/NC(=O)CC23CC4CC(CC(C4)C2)C3)cc(Br)c1OCC(=O)N(C)C |  | inconclusive [inhibitor, single point]
20 | Cc1cc(-c2nnc(SCC(=O)c3ccc(F)cc3)o2)no1 |  | inconclusive [inhibitor, single point]
21 | CC(C)c1cc(C(=O)NC2CCCCC2)no1 |  | inconclusive [activator, single point]

Row | Compound | activity, negative = inhibition | Potency
22 | O=C(N/N=C/C=C/c1ccccc1[N+](=O)[O-])c1cc(-c2cccnc2)nc2ccccc12 |  | active: 5.62 µM
23 | COCCCNC(=O)/C(C#N)=C/c1c(N2CCN(c3cccc(Cl)c3)CC2)nc2c(C)cccn2c1=O | inactive: -21.3% | 
24 | CCN1CCN(CCCOc2ccc(-c3ccccc3)cc2)CC1 | inactive: -19.2% | 
25 | CC(=O)C1(C)N(O)C(C)(C)C(c2cccs2)=[N+]1[O-] (stereo unspecified) |  | active: 10 µM
26 | NNc1nnnc2c1sc1nc(N3CCOCC3)c3c(c12)CCCC3 | inactive: -3.07% | 
27 | Cc1ccc(C2NC(=O)c3sc(=S)n(-c4ccccc4)c3N2)cc1 (stereo unspecified) | inactive: 0.398% | 
28 | CCOc1ccccc1-c1nc(-c2ccc(NC(=O)Cc3ccc(OC)cc3)cc2)no1 |  | inconclusive [inhibitor, single point]
29 | COc1ccccc1NC(=O)COc1ccc(Br)cc1CNCCCN1CCOCC1 | inactive: 2.23% | 
30 | CC(C)c1onc(C(=O)Nc2cccc(O)c2)c1[N+](=O)[O-] | inactive: -1.8% | 
31 | C/C(=N\NC(=S)NCCc1ccccc1)c1ccc(C#N)cc1 |  | active: 8.91 µM
32 | CC(NC(=O)CSC(=S)N(C)C)C12CC3CC(CC(C3)C1)C2 (stereo unspecified) | inactive: -0.873% | 
33 | COc1cccc(OCc2cc(C(=O)N(C)Cc3nccn3C)no2)c1 |  | inconclusive [inhibitor, single point]
34 | COc1ccccc1NC(=O)/C(C#N)=C/c1ccncc1 |  | active: 2.51 µM
35 | COC(=O)C1C(C(=O)OC)C1(c1ccccc1)c1ccccc1 (stereo unspecified) | inactive: 5.44% | 
36 | COc1ccc(-c2noc(N3CCC(C(=O)Nc4cccc(OC)c4)CC3)n2)cc1 | inactive: -25% | 
37 | Cc1noc(C)c1-c1ccc2ncnc(NCc3ccc(F)cc3)c2c1 | inactive: -12.4% | 
38 | CC1(C)CC(=O)C2=C(C1)N(c1ccc(F)cc1)C(=O)NC2(C(F)(F)F)C(F)(F)F | inactive: -6.85% | 
39 | Cn1nc(C(=O)Nc2cccnc2)c2ccccc2c1=O | inactive: 17.6% | 
40 | O=C(COc1ccc(Cl)cc1)Nc1cnn(Cc2c(Cl)cccc2Cl)c1 |  | inconclusive [inhibitor, single point]
41 | Cc1ccc(S(=O)(=O)Nc2ccc(N3CCOCC3)cc2)cc1[N+](=O)[O-] | inactive: -17.3% | 
